Results on one molecule are retold here after the supplement of paper PMC8728848.

Common to all, as to experiment: glycan array binding signal (z-score within array); higher = stronger binding
Holding throughout (conditions): glycan notation: IUPAC condensed, linker removed

One experiment concerns the target Gal(a1-3)Gal(b1-4)GlcNAc. In outline:
(§1)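 Glycan array binding is given as a within-array Z-score, which can be read as non-binding when negative. The arrays, 3228 of them, came from the Consortium for Functional Glycomics database and were retained only where the protein sequence was available. Z-scores were averaged across arrays of the same protein sequence at different concentrations or buffers and across linkers.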

Experiment [1] addresses Gal(a1-3)Gal(b1-4)GlcNAc(b1-2)Man. The gist of the method:
as §1

Experiment [2] addresses Gal(a1-3)Gal(b1-4)GlcNAc(b1-2)Man(a1-3)[Gal(a1-3)Gal(b1-4)GlcNAc(b1-2)Man(a1-6)]Man(b1-4)GlcNAc(b1-4)GlcNAc. The gist of the method: as §1
The target of experiment [3] is Gal(a1-3)Gal(b1-4)GlcNAc(b1-3)GalNAc. In outline:
as §1

Experiment [4] addresses Gal(a1-3)Gal(b1-4)GlcNAc(b1-6)GalNAc. In outline: as §1
Experiment [5] concerns the target Gal(a1-3)Gal(b1-4)[Fuc(a1-3)]GlcNAc. In outline: as §1
The target of experiment [6] is Gal(a1-3)Gal(b1-4)[Fuc(a1-3)]GlcNAc(b1-2)Man(a1-3)[Gal(a1-3)Gal(b1-4)[Fuc(a1-3)]GlcNAc(b1-2)Man(a1-6)]Man(b1-4)GlcNAc(b1-4)GlcNAc. The gist of the method: as §1
In another experiment the target is Gal(a1-3)GalNAc. The gist of the method:
as §1

Experiment [7] has as its target Gal(a1-3)[Gal(a1-4)]Gal(b1-4)GlcNAc. The gist of the method:
as §1

The target of experiment [8] is Gal(a1-4)Gal(b1-3)GlcNAc(b1-2)Man(a1-3)[Gal(a1-4)Gal(b1-3)GlcNAc(b1-2)Man(a1-6)]Man(b1-4)GlcNAc(b1-4)GlcNAc. In outline: as §1
The target of another experiment is Gal(a1-4)Gal(b1-4)Glc. The gist of the method: as §1
The target in the next experiment is Gal(a1-4)Gal(b1-4)GlcNAc. In outline:
as §1

Experiment [9] deals with Gal(a1-4)Gal(b1-4)GlcNAc(b1-2)Man(a1-3)[Gal(a1-4)Gal(b1-4)GlcNAc(b1-2)Man(a1-6)]Man(b1-4)GlcNAc(b1-4)GlcNAc. In outline:
as §1

Experiment [10] has as its target Gal(a1-4)Gal(b1-4)GlcNAc(b1-3)Gal(b1-4)Glc. In outline:
as §1

The target in another experiment is Gal(a1-4)GlcNAc. The gist of the method: as §1
In the next experiment the target is Gal(a1-6)Glc. In outline: as §1
In the next experiment the target is Gal(b1-2)Gal. In outline:
as §1

The next experiment addresses Gal(b1-3)Gal. In outline: as §1
Another experiment deals with Gal(b1-3)Gal(b1-4)GlcNAc. In outline:
as §1

Another experiment addresses Gal(b1-3)GalNAc. In outline:
as §1

The target in experiment [11] is Gal(b1-3)GalNAc(a1-3)[Fuc(a1-2)]Gal(b1-4)Glc. In outline:
as §1

The target of experiment [12] is Gal(b1-3)GalNAc(a1-3)[Fuc(a1-2)]Gal(b1-4)GlcNAc. The gist of the method:
as §1

This is one part of the list.

B1: Cp ZmpB (Clostridium perfringens), Q0TR08 (protein)
chain: MNKRKIAAIILATMITNLSATTIDVLAQELNTKNNSKVEVSHDDESHQARVSKFDLYNSDKLDAYNQEFQVSRSNIKSINNNGGKYNSSTIDKAIDGNLETHWETGKPNDANFTNEVVVTFNEITNIDRIVYSARRDSARGKGFAKEFEIYASLKDEGDDFNLVSSGEYTESTRDLVEIKFNPTDFKRLKFKFKKADQNWASAAEFMFYKEDKLNEKFNGLFTDSSMNKVSEEFNTLEKLNAFENELKDHPIYDLYKEGLNNARAILTETSENPTKATLGQITYNLNDDYNNQYRMPYKNIKAIKNNGRHYAAQNIEKAIDNDVNTYWETGTLNSSSFNNEVEVEFNDLVTLDRIVYGSRQSDLKGFAEEVYIYASRTSKGDTYKLVATGAHEATKGLVEAKFEPTEFKRVKFKFKKSKQNSATLNELMFYKPDEVYSSIPKLFTDGTMSELSEEFNSLEKINAFKEKAKNHPLYNDFNETIELAESLISNPRKEDVLELEMRGDSISEAKKRKVWNFQDWQITGLSARAGDKITVYVDVAEGDPTPTLLYKQSLTQHGGATSFQLKPGKNEITIPEINYESNGIPKDVIQGGDLFFTNYKSDSQKRAPKVRIEGASKYPVFILGKSDENEVMKELEAYVEKIKAEPKTTPNIFAVSSNKSLEFVQATYALDWYKKNNKTPKYTAEQWDQYIADAMGFWGFDNSKDVNSDFNFRIMPMVKNLSGGAFMNAGNGVIGIRPGNQDAILAANKGWGVAHELGHNFDTGGRTIVEVTNNMMPLFFESKYKTKTRITDQNIWENNTYPKVGLDDYSNNELYNKADSTHLAQLAPLWQLYLYDNTFYGKFERQFRERDFGNKNREDIYKSWVVAASDAMELDLTEFFARHGIRVDDKVKEDLAKYPKPDKKIYYLNDLAMNYKGDGFTENAKVSVSTSGSNGNIKLSFSVDDENKDNILGYEIRRDGKYVGFTSNDSFVDTKSNLDEDGVYVVTPYDRKLNTLNPIEVNALQPTLSVNPVITLALGEEFNEEEYIVAKDIKGNSLSESVKVKSSNVNTSKVGEYEVLYSLEDSKGNEYTKTSKVNVVSRKEYMSDLTPKQSSNGWGTVRKDKSISGGVIGLTRDGDFVDYNKGLGLHSNAEYVYDLEGKDYDYFESYVGVDKAMSSRPASSVIFKVLVDGEEKFNSGVMRSTTPQKYVKVDVKNAKELKLIVNDAGDGDSSDHASFGDAKLATLSSKPIIKGENLAYSMDEKVDLMKGITATDIEDGNITSKVQIKSSDFVEGKSGIFTVVYSVTDSDGLTSECSRTIAVTDKETQLSDLNWKSATIGSGSVRKDRAVSGNQIRLLNEDNSVETFAKGIGTHSYSEIVYNSEGYDIFDTWVGIDRHVADKKVSSVKFKVYVDGELKAETDVMRIDTPKKRLVVDVRNSKEIKLVVDVADNGNNWDHADWADAKFRNLAEYDASELNKAIEEAKKLDLNNYTEESSEALKNAISKGEEALLSKDKETINSALEELNKEMNSLVKVDLNAVINIPDKYLLKSIQNQLNKTGDITLGDMYSLTTLTLSGVEDLTGLENAKNLETLNMDYNEVKDLRPLSKLKKLNTLNAQEQFIAAGELKPSNGKVIGDSKVYNREGKNVAKTIRVVDKNGNTILEQDAKDEFTINTKDLSSGLYGVHVLFEDEGFSGVMFYLFNV
For the molecule B1, the “glycan array binding signal (z-score)” value in the experiment with Gal(a1-3)Gal(b1-4)GlcNAc is -0.193; in experiment [1] it was -0.163; in experiment [2], 0.108; in [3], -0.114; in [4], -0.014; in experiment [5], 0.119. Also, the “glycan array binding signal (z-score)” value was 0.555 in experiment [6]; -0.046 with Gal(a1-3)GalNAc; -0.263 in [7]; -0.252 in [8]; -0.209 with Gal(a1-4)Gal(b1-4)Glc; -0.181 with Gal(a1-4)Gal(b1-4)GlcNAc. The “glycan array binding signal (z-score)” value is -0.254 in experiment [9]; 0.228 in experiment [10]; 0.252 with Gal(a1-4)GlcNAc; -0.02 in the experiment with Gal(a1-6)Glc; 0.053 with Gal(b1-2)Gal; 0.414 in the experiment with Gal(b1-3)Gal. In addition, the “glycan array binding signal (z-score)” value with Gal(b1-3)Gal(b1-4)GlcNAc was 0.081; in the experiment with Gal(b1-3)GalNAc, 0.205; in experiment [11] it was 0.587; in experiment [12], -0.189.
